Laboratory results reported in PubChem BioAssay AID1460 (National Center for Advancing Translational Sciences (NCATS), 2008).
Hit rate of the full screen: of about 270,000 compounds, about 5,800 (2.1%) were called active. The inconclusive results got no clear call from the source; some entries with a clear call stand among them for comparison. Calls come from the whole dose curve; as a rule, active = well fitted inhibition curve with a large enough effect; inconclusive = small, poorly fitted or top-dose-only effect; inactive = flat fitted curve, though single readings scatter. Where the call is inconclusive, the potency comes from a doubtful curve fit.

Target: Microtubule-associated protein tau (Homo sapiens) (UniProt P10636)
Assay: qHTS for Inhibitors of Tau Fibril Formation, Thioflavin T Binding; note: nearly all actives have a fitted effect of over 55% in size
Conditions: recombinant tau K18 P301L (four-repeat tau fragment), heparin-induced fibrillization, ThT fluorescence; series mostly up to 57.4 µM
How it was run: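 Heparin-induced fibrillization of the P301L-mutant K18 repeat-domain fragment of human tau was followed by ThT binding in quantitative high-throughput format.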
Potency is the fitted concentration of half-maximal effect; tags give direction and shape of the fitted curve.

Sequence of UniProt P10636 (P10636 whole entry, looked up): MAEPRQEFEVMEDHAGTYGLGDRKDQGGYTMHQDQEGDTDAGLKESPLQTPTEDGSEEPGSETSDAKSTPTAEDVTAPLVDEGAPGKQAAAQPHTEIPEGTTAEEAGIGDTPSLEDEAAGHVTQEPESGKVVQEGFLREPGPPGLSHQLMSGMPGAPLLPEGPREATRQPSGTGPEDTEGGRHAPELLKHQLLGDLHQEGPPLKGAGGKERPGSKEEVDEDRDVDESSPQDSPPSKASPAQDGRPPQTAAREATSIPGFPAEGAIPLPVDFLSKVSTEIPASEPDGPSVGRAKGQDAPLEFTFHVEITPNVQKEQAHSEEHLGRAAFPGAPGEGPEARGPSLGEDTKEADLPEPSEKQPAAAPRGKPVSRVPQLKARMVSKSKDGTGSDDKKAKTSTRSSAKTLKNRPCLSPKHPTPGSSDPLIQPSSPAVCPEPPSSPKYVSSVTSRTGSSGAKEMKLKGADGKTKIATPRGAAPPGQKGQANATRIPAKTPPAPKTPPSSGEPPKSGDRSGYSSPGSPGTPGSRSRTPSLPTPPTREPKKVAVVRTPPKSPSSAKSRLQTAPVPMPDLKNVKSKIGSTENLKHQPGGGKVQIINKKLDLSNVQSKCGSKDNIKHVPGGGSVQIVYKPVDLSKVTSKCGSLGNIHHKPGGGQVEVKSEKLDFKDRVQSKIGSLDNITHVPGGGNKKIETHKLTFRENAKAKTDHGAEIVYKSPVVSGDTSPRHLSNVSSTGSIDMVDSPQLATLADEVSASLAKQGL

SMILES	Potency
COc1ccc(Cl)cc1NC(=O)c1c(NCc2cccs2)sc2c1CCCC2	inconclusive: 12.6 µM [inhibitor, partial curve]
COc1ccc(Oc2ccc(/C=C/C(=O)c3ccc(O)cc3)cc2[N+](=O)[O-])cc1	inconclusive: 12.6 µM [inhibitor, partial curve]
CCN(CC)S(=O)(=O)c1ccc(/C=C/C(=O)Nc2ccc(F)cc2F)cc1	inactive
COc1ccc2c(c1)Cc1sc(NC(=O)c3ccc(Cl)cc3)nc1-2	inconclusive: 3.16 µM [inhibitor, partial curve, poor fit]
N#C/C(=C\c1ccc(-c2ccc(Cl)c(C(=O)O)c2)o1)c1nc2ccccc2[nH]1	inconclusive: 35.5 µM [inhibitor, single point]
CC(C)=CCC/C(C)=C/CC/C(C)=C/CC/C(C)=C/CO	inconclusive: 15.8 µM [inhibitor, partial curve]
COC(=O)Cn1cc(/C=C/[N+](=O)[O-])c2ccccc21	inconclusive: 25.1 µM [inhibitor, partial curve]
Cc1[nH]n(-c2ccccc2)c(=O)c1/C=N/N(C)c1ccccc1	inconclusive: 22.4 µM [inhibitor, partial curve]
COc1ccc(-c2nnc(SCC(=O)c3ccc([N+](=O)[O-])cc3)o2)cc1OC	inconclusive: 0.0708 µM [inhibitor, full curve]
OC(CNc1ccccc1)COc1ccc(OCC(O)CNc2ccccc2)cc1 (stereo not drawn)	active: 2.82 µM
CC(C)(C)c1ccc(C(=O)NCC(=O)OCc2ccc([N+](=O)[O-])cc2)cc1	inconclusive: 15.8 µM [inhibitor, partial curve, poor fit]
O=C(O)/C=C/c1ccccc1[N+](=O)[O-]	inconclusive: 35.5 µM [inhibitor, single point]
CCC(C)(C)NC(=S)Nc1ccc(-c2nc3ccc(C)cc3s2)cc1	inconclusive: 17.8 µM [inhibitor, partial curve]
O=C1S/C(=C\c2ccc(N3CCOCC3)o2)C(=O)N1Cc1c(F)cccc1Cl	inconclusive: 17.8 µM [inhibitor, partial curve]
CCCCC/C=C\C[C@H](O)/C=C/c1cccc(C[C@H](O)CCCCO)n1	inconclusive: 11.2 µM [inhibitor, partial curve]
CCOC(=O)c1c(NC(=S)Nc2ccc(Cl)cc2)sc2c1CCN(C)C2	inactive
CC1=NOC(=O)/C1=C/c1ccc2c(c1)OCO2	inconclusive: 15.8 µM [inhibitor, partial curve]
CCS(=O)(=O)N1Cc2ccccc2CC1C(=O)N1CCN(c2cccc(C)c2C)CC1 (stereo not drawn)	inconclusive: 28.2 µM [inhibitor, partial curve]
COc1cccc(-c2nc(N3CCN(C)CC3)c3ccccc3n2)c1O	inconclusive: 25.1 µM [inhibitor, single point]
CCN(CC)C(=O)CSc1ncnc2c1nnn2-c1ccc(OC)cc1	inactive
COC(=O)c1cc2oc(C)cc2n1Cc1ccc(C)cc1	inconclusive: 15.8 µM [inhibitor, partial curve]
Cn1c(-c2ccc3nc(N)sc3c2)nc2cc(N)ccc21	inconclusive: 17.8 µM [inhibitor, partial curve]
CC(=O)C1=C(O)C(=O)N(c2ccc(Br)cn2)C1c1ccc(Br)cc1 (stereo not drawn)	inconclusive: 31.6 µM [inhibitor, partial curve]

SMILES	Potency
Cc1cc(C)cc(NC(=O)CSc2nnc(CNC(=O)c3c(F)cccc3Cl)o2)c1	inactive
CCC(=O)C1=C(c2ccc(F)cc2)N(C(=O)CC)n2c(nnc2C2CCCCC2)S1	inconclusive: 12.6 µM [inhibitor, partial curve]
O=C(O)c1ccc(N=NN2CCOCC2)cc1	inconclusive: 20 µM [inhibitor, partial curve]
COc1ccc(OC(=O)CCc2c[nH]c3ccccc23)cc1	inconclusive: 25.1 µM [inhibitor, partial curve]
CC(C)c1ccc(NC(=O)CN2C=NS(=O)(=O)c3ccccc32)cc1	inactive
Cc1cc(C(F)F)n2nc(C(=O)Nc3sc4c(c3C(N)=O)CCC4)nc2n1	inconclusive: 12.6 µM [inhibitor, partial curve]
COc1cccc2cc(/C(C)=N/Nc3nc(-c4cc(C)ccc4C)cs3)c(=O)oc12	inconclusive: 22.4 µM [inhibitor, partial curve]
COc1ccc(OC)c(C(=O)C2COC(=O)C2)c1 (stereo not drawn)	inconclusive: 39.8 µM [inhibitor, single point]
COc1ccc(-c2ccccc2)cc1NCc1ccccc1C	inconclusive: 31.6 µM [inhibitor, partial curve, poor fit]
O=C(Oc1ccccc1OC(=O)N1CCOCC1)N1CCOCC1	inactive
Nc1[nH]n(-c2ccccc2)c(=O)c1N=Nc1ccccc1[N+](=O)[O-]	inconclusive: 1.12 µM [inhibitor, full curve]
COc1cccc(C2C(C(=O)Nc3ccccc3)=C(C)N=c3s/c(=C/c4ccc(OCC(=O)O)cc4)c(=O)n32)c1 (stereo not drawn)	inconclusive: 28.2 µM [inhibitor, single point]
O=C(C[n+]1ccc(C(=O)NCc2ccccc2)cc1)c1ccc2c(c1)OCCO2	inconclusive: 5.01 µM [inhibitor, full curve, poor fit]
CCOc1ccc(N(C(=O)c2ccc(OC)cc2)S(=O)(=O)c2ccc3c(c2)n(C)c(=O)n3C)cc1	inconclusive: 5.62 µM [inhibitor, full curve]
Cc1ccccc1-c1noc(-c2ccc(N3CCCC3)c([N+](=O)[O-])c2)n1	inactive
COc1ccccc1OCCCn1c(C)c(C#N)c2ccccc21	inconclusive: 28.2 µM [inhibitor, single point]
CCC1SC(N)=NC1=O (stereo not drawn)	inactive
CC(C)c1ccc(-c2noc(SCC(=O)N(C)c3ccc(F)cc3)n2)cc1	inconclusive: 15.8 µM [inhibitor, single point]
CCn1c(C)nc2cc(C(=O)N/N=C(\C)c3ccc(N4CCOCC4)cc3)ccc21	inconclusive: 2 µM [inhibitor, full curve]
Cc1ccccc1CS(=O)(=O)c1ncc(Cl)c(C(=O)Nc2nnc(C(C)C)s2)n1	inconclusive: 5.01 µM [inhibitor, full curve]
Cc1ccccc1-c1ccc(=O)n(CC(=O)Nc2ccc(N3CCOCC3)cc2)n1	inactive
Oc1ccc(CNc2ccccc2O)cc1	active: 14.1 µM
CN(C)C(/C=C/Nc1cccc([N+](=O)[O-])c1)=C(C#N)C#N	inconclusive: 28.2 µM [inhibitor, single point]

SMILES	Potency
COCC(=O)O[C@]1(CCN(C)CCCc2nc3ccccc3[nH]2)CCc2cc(F)ccc2[C@@H]1C(C)C	inconclusive: 17.8 µM [inhibitor, partial curve]
O=C(NNc1c2ccccc2nc2ccccc12)c1ccc(O)cc1O	active: 2.24 µM
COc1cc2cc(C)c(SCC(=O)N3CCN(C(=O)c4ccco4)CC3)nc2cc1OC	inconclusive: 11.2 µM [inhibitor, partial curve, poor fit]
Cc1ccc(-c2cc(C(F)F)n3ncc(C(=O)Nc4c(C)nn(Cc5c(Cl)cccc5Cl)c4C)c3n2)cc1	inactive
N#C/C(=C\c1c(Oc2ccc(F)cc2)nc2ccccn2c1=O)c1nc2ccccc2s1	inconclusive: 17.8 µM [inhibitor, partial curve]
CCOC(=O)COc1ccc(/C=C2/SC(=Nc3ccccc3)N(Cc3cccnc3)C2=O)cc1OC	inconclusive: 31.6 µM [inhibitor, partial curve]
CC1CC(C)CN(c2ccc(-n3cnnn3)cc2[N+](=O)[O-])C1 (stereo not drawn)	inconclusive: 25.1 µM [inhibitor, partial curve]
CN(C)c1ccc(/C=N/NC(=O)c2cc(-c3ccc4c(c3)OCO4)n[nH]2)cc1	active: 2.51 µM
CCOc1ccc(CCNC(=O)Cn2nc(CC)n3c(cc4c(OC)cccc43)c2=O)cc1OCC	inactive
CCCCCCOc1ccc(/C(N)=N/O)cc1	inconclusive: 28.2 µM [inhibitor, partial curve]
CCOc1cccc(C(=O)Nc2ccc(N(CC)CC)cc2)c1	inconclusive: 2.82 µM [inhibitor, partial curve]
Cc1cc(N2CCOCC2)ccc1/C=C1\NC(=O)N(Cc2ccccc2)C1=O	inactive
Cc1ccc2oc(=O)c3c4cc(O)c(O)cc4oc3c2c1	inconclusive: 0.631 µM [inhibitor, partial curve]
CCCCCCCCCCOCCC(=O)O	inactive
Nc1nn(-c2ccccc2)nc1C(=O)OCc1ccccc1Br	inactive
COc1ccc(OC)c(/C(O)=C/C(=O)C(=O)Nc2cc(C)ccc2OC)c1	inconclusive: 10 µM [inhibitor, partial curve]
Cc1ccc(C)n1-c1ccc(N2CCOCC2)c(Br)c1	inconclusive: 39.8 µM [inhibitor, single point]
Cc1cc(OCc2ccccc2)ccc1/C(O)=C1/C(=O)C(=O)N(Cc2cccnc2)C1c1ccncc1 (stereo not drawn)	inactive
Cc1ccc(NC(=O)c2cc(CN3CCOCC3)on2)cc1Cl	inactive
COc1cc(-c2nc3ccc(Cl)cn3c2Nc2ccc3c(c2)OCO3)ccc1O	inconclusive: 12.6 µM [inhibitor, partial curve]
Cc1ccc(/C=N/NC(=O)c2c(-c3ccccc3)noc2C)o1	inactive
S=C(Cc1cccnc1)N1CCOCC1	inconclusive: 28.2 µM [inhibitor, single point]
